# Target: charcoal absorbed human serum albumin (Homo sapiens, UniProt P02768)
# Test: Free testosterone assay, effect of elevated albumin (Example 4)
# Format: binding
# Method: Free testosterone calibrators, prepared by adding different amounts of testosterone to human serum free of any apparent testosterone, were calibrated by direct equilibrium dialysis and assigned free testosterone values in pg/ml. […] The tubes are incubated for 4 hours at 37° C., then decanted and radioactivity counted. Results are computed by interpolation to from the calibration curve.
# Chain of UniProt P02768 (P02768 25-609): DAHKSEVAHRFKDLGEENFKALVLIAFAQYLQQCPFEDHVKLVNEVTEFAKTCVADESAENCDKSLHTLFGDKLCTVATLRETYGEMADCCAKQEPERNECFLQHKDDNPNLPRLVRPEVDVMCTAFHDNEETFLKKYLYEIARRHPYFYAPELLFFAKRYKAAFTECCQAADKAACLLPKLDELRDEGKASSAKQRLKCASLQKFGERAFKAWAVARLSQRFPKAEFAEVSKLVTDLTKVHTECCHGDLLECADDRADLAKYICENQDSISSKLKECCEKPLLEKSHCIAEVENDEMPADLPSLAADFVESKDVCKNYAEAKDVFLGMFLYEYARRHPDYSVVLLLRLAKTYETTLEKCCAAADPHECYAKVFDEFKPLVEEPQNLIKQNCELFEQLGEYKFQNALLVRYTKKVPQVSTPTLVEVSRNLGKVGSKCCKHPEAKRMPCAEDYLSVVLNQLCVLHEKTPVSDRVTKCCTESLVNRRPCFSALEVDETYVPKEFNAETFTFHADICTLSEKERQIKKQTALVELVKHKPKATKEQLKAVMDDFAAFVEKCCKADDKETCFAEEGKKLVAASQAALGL
substance,measurement,setting,value
6-hydroxytestosterone-19-carboxymethyl ether histamine,"free testosterone, Mean of 3 samples",Spiked with Albumin 1.0 gm/dl,19.3 pg/mL
same,"free testosterone, Mean of 3 samples",Spiked with Albumin 2.0 gm/dl,18.4 pg/mL
same,"free testosterone, Mean of 3 samples",Spiked with Albumin 3.0 gm/dl,17.9 pg/mL
same,"free testosterone, Mean of 3 samples",Unspiked,19.5 pg/mL
